Laboratory results taken from the supplement of paper PMC4967469.
By IC50 is meant the dose at which the fit gives 50% viability; a fit beyond the top or the lowest dose is shown as a bound at that dose. For AUC the same curve is integrated over the 256-fold range of doses and scaled to a fraction: 1 means no effect, lower means more sensitive. For some assays here: A top dose marked as inferred comes from the curve model; the source does not state it.

Legend:
Assay in all cases: Viability of human cancer cell lines after 72 h of drug (GDSC screen)
Trametinib = compound: CC(=O)Nc1cccc(-n2c(=O)n(C3CC3)c(=O)c3c(Nc4ccc(I)cc4F)n(C)c(=O)c(C)c32)c1 [Trametinib]; conditions: top dose 1 µM
Description: (§1)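 Human cancer cell lines in 384-well plates, medium with 10% serum, drug for 72 h over a 256-fold dose range (nine 2-fold or five 4-fold steps up to the top dose). Adherent lines were fixed and stained with the nucleic acid dye Syto60, suspension lines read with resazurin; signal relative to control wells, capped at 0 and 100%. One two-parameter sigmoid per drug and line, fitted in a mixed model over all curves with the slope shared within a line.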

HG-6-64-1 = compound: CCN1CCN(Cc2ccc(NC(=O)c3ccc(C)c(/C=C/c4cnc5[nH]ccc5c4OC)c3)cc2C(F)(F)F)CC1 [HG-6-64-1]; conditions: top dose 5.12 µM; top dose inferred
Description: as §1

PF-4708671 = compound: CCc1cncnc1N1CCN(Cc2nc3ccc(C(F)(F)F)cc3[nH]2)CC1 [PF-4708671]; conditions: top dose 10 µM; top dose inferred
Description: as §1

AV-951 = compound: COc1cc2nccc(Oc3ccc(NC(=O)Nc4cc(C)on4)c(Cl)c3)c2cc1OC [AV-951]; conditions: top dose 0.128 µM; top dose inferred
Description: as §1

I-BET-762 = compound: CCNC(=O)C[C@@H]1N=C(c2ccc(Cl)cc2)c2cc(OC)ccc2-n2c(C)nnc21 [I-BET-762]; conditions: top dose 20 µM; top dose inferred
Description: as §1

KIN001-244 = compound: O=C(NC(COc1ccc2[nH]c(=O)[nH]c2c1)c1ccccc1)c1cccn(Cc2ccc(F)c(F)c2)c1=O [KIN001-244]; conditions: top dose 20 µM; top dose inferred
Description: as §1

Row | Cell Line | AUC (Trametinib) | IC50 (Trametinib) [nM] | AUC (HG-6-64-1) | IC50 (HG-6-64-1) [nM] | AUC (PF-4708671) | IC50 (PF-4708671) [nM] | AUC (AV-951) | IC50 (AV-951) [nM] | AUC (I-BET-762) | IC50 (I-BET-762) [nM] | AUC (KIN001-244) | IC50 (KIN001-244) [nM]
1 | KYSE-220 (oesophagus, adherent) | 0.364 | 25.8 | 0.797 | 2570 | 0.95 | > 10000 | 0.982 | > 128 | 0.948 | > 20000 | 0.911 | > 20000
2 | KYSE-270 (oesophagus, adherent) | 0.928 | > 1000 | 0.707 | 1110 | 0.991 | > 10000 | 0.991 | > 128 | 0.937 | > 20000 | 0.859 | 12900
3 | KYSE-450 (oesophagus, adherent) | 0.734 | 277 | 0.597 | 582 | 0.988 | > 10000 | 0.977 | > 128 | 0.75 | 6200 | 0.89 | > 20000
4 | KYSE-510 (oesophagus, adherent) | 0.919 | > 1000 | 0.726 | 1220 | 0.975 | > 10000 | 0.992 | > 128 | 0.961 | > 20000 | 0.953 | > 20000
5 | LC-1-sq (lung squamous cell carcinoma, adherent) | 0.764 | 424 | 0.985 | > 5120 | 0.936 | > 10000 | 0.981 | > 128 | 0.847 | 18700 | 0.952 | > 20000
6 | LCLC-97TM1 (large cell lung carcinoma, adherent) | 0.212 | 8.03 | 0.686 | 1120 | 0.967 | > 10000 | 0.976 | > 128 | 0.845 | 16600 | 0.762 | 7800
7 | LCLC-103H (large cell lung carcinoma, adherent) | 0.99 | > 1000 | 0.579 | 516 | 0.975 | > 10000 | 0.972 | > 128 | 0.947 | > 20000 | 0.894 | > 20000
8 | LK-2 (lung squamous cell carcinoma, adherent) | 0.86 | 759 | 0.858 | 3820 | 0.961 | > 10000 | 0.988 | > 128 | 0.886 | > 20000 | 0.911 | > 20000
9 | LN-18 (glioma, adherent) | 0.956 | > 1000 | 0.649 | 756 | 0.994 | > 10000 | 0.994 | > 128 | 0.994 | > 20000 | 0.95 | > 20000
10 | LN-229 (glioma, adherent) | 0.466 | 50.6 | 0.818 | 2870 | 0.973 | > 10000 | 0.987 | > 128 | 0.952 | > 20000 | 0.955 | > 20000
11 | LNZTA3WT4 (glioma, adherent) | 0.724 | 265 | 0.795 | 2330 | 0.989 | > 10000 | 0.987 | > 128 | 0.983 | > 20000 | 0.916 | > 20000
12 | LOU-NH91 (lung squamous cell carcinoma, adherent) | 0.792 | 500 | 0.749 | 1790 | 0.959 | > 10000 | 0.984 | > 128 | 0.959 | > 20000 | 0.958 | > 20000
13 | LS-180 (large intestine, adherent) | 0.432 | 39.7 | 0.71 | 1380 | 0.985 | > 10000 | 0.985 | > 128 | 0.936 | > 20000 | 0.908 | > 20000
14 | LU-99A (large cell lung carcinoma, adherent) | 0.619 | 132 | 0.754 | 1710 | 0.984 | > 10000 | 0.987 | > 128 | 0.984 | > 20000 | 0.928 | > 20000
15 | LU-135 (small cell lung carcinoma, suspension) | 0.992 | > 1000 | 0.857 | 3090 | 0.991 | > 10000 | 0.98 | > 128 | 0.843 | 10700 | 0.87 | 13500
16 | M14 (melanoma, adherent) | 0.084 | < 3.91 | 0.844 | 3970 | 0.955 | > 10000 | 0.979 | > 128 | 0.855 | 17300 | 0.832 | 13700
17 | M059J (glioma, adherent) | 0.892 | > 1000 | 0.637 | 790 | 0.955 | > 10000 | 0.974 | > 128 | 0.787 | 9540 | 0.831 | 14100
18 | MC-IXC (neuroblastoma, adherent) | 0.996 | > 1000 | 0.593 | 538 | 0.987 | > 10000 | 0.996 | > 128 | 0.994 | > 20000 | 0.911 | 14600
19 | MCF7 (breast, adherent) | 0.982 | > 1000 | 0.8 | 2590 | 0.953 | > 10000 | 0.986 | > 128 | 0.986 | > 20000 | 0.972 | > 20000
20 | MDA-MB-157 (breast, adherent) | 0.987 | > 1000 | 0.807 | 2700 | 0.961 | > 10000 | 0.97 | > 128 | 0.973 | > 20000 | 0.97 | > 20000
21 | MDA-MB-175-VII (breast, adherent) | 0.782 | – | 0.946 | > 5120 | 0.911 | > 10000 | 0.988 | > 128 | 0.982 | > 20000 | 0.92 | > 20000
22 | MDA-MB-231 (breast, adherent) | 0.495 | 60.7 | 0.725 | 1450 | 0.981 | > 10000 | 0.982 | > 128 | 0.972 | > 20000 | 0.968 | > 20000
